Reference: US20250214977A1, “STAT6 INHIBITORS AND USES THEREOF” (Kymera Therapeutics, Inc., priority 2024, published 2025)

Target: T1, biotinylated truncated STAT6 (123-632)-avi (Homo sapiens, UniProt P42226)
T1 sequence (P42226 123-632 limits assumed): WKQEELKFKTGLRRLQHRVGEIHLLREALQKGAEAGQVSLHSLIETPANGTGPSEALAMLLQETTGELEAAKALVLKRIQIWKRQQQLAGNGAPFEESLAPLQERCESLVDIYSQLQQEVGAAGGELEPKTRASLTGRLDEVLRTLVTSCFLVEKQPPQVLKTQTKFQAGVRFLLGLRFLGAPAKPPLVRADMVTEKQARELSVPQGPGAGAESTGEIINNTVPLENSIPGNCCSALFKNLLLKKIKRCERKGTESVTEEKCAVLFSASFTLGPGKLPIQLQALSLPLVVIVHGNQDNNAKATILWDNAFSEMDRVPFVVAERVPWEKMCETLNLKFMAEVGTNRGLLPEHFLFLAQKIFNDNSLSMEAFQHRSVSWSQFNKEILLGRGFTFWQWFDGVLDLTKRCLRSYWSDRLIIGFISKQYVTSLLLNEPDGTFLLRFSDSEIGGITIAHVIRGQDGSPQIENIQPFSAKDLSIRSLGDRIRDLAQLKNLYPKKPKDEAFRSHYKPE
Experiment: Homogenous Time-Resolved Fluorescence (HTRF) binding assay
Conditions: 0.15 nM biotinylated truncated STAT6 (123-632)-avi, 20 nM fluorescein-labeled probe

Row | Compound | pIC50 (30 minutes at room temperature) | pIC50 (30 minutes room temperature)
1 | COc1ccncc1-c1cc(C2=CCCN(C(=O)CCn3ccnn3)C2)c(F)c2[nH]c(C(=O)N3CCN(c4ncc(C(F)(F)F)cc4OC)CC3)cc12 [Example I-445] | > 7.00 | –
2 | COc1ccncc1-c1cc(C2=CCCN(C(C)=O)C2)c(F)c2[nH]c(C(=O)N3CCN(c4ccccc4OC)CC3)cc12 [Example I-409] | 6.00 to 7.00 | –
3 | COc1cc(OC)c(N2CCN(C(=O)c3cc4c(-c5ccccc5OC)cc(C5=CCCN(C(=O)CCn6ccnn6)C5)c(F)c4[nH]3)CC2)c(OC)c1 [Example I-1434] | – | 6.00 to 7.00
4 | COc1cccc(N2CCN(C(=O)c3cc4c(-c5ccccc5OC)cc(C5=CCCN(C(=O)CCn6ccnn6)C5)c(F)c4[nH]3)CC2)n1 [Example I-359] | > 7.00 | –
5 | CN(C)C(=O)c1cc2cc(C3=CCCN(C(=O)CCn4ccnn4)C3)cc(-c3cccc4c3CN(C)C4=O)c2o1 [Example I-845] | > 7.00 | –
6 | CCOc1ccncc1-c1cc(C2=CCCN(C(=O)CCn3ccnn3)C2)c(F)c2[nH]c(C(=O)N3CCN(c4cnc(C)nc4OC)CC3)cc12 [Example I-1036] | > 7.00 | –
7 | CCC1=C(c2cc(C3=CCCN(C(=O)CCn4ccnn4)C3)c(F)c3[nH]c(C(=O)N4CCN(c5ncc(F)cc5OC)CC4)cc23)CCCC1 [Example I-1172] | 6.00 to 7.00 | –
8 | Cc1cccc(C)c1N1CC(C(=O)N2CCC=C(c3ccc4cc(C(=O)N(C)C)[nH]c4c3)C2)CC1=O (stereo not drawn) [Example I-97] | 4.00 to 5.00 | –
9 | CC(=O)N1CCC=C(c2cc(-c3ccc(N4CCN(C)CC4)nc3)c3cc(C(=O)N(C)C)[nH]c3c2F)C1 [Example I-1506] | – | 6.00 to 7.00
10 | CCC1CCCCC1c1cc(C2=CCCN(C(=O)CCn3ccnn3)C2)c(F)c2[nH]c(C(=O)N3CCN(c4ncc(F)cc4OC)CC3)cc12 (single isomer, unassigned) [Example I-1175] | 6.00 to 7.00 | –
11 | COc1cc(F)cnc1N1CCN(C(=O)c2cc3c(C(F)F)cc(C4=CCCN(C(=O)CCn5ccnn5)C4)c(F)c3[nH]2)CC1 [Example I-532] | > 7.00 | –
12 | COc1ccccc1-c1cc(C2=CCCN(C(=O)CCn3ccnn3)C2)c(F)c2[nH]c(C(=O)N3CCN(c4ccc5c(c4)C=NCC5)CC3)cc12 [Example I-918] | > 7.00 | –
13 | COc1ccccc1-c1cc(C2=CCCN(C(=O)CCn3ccnn3)C2)c(F)c2[nH]c(C(=O)Nc3nccc(=O)[nH]3)cc12 [Example I-1409] | – | 6.00 to 7.00
14 | COc1ccccc1-c1cc(C(=O)N(C)C)cc2cc(C3=CCCN(C(C)=O)C3)[nH]c12 [Example I-1473] | – | 6.00 to 7.00
15 | COc1ccccc1-c1cc(C2=CCCN(C(=O)CCn3ccnn3)C2)c(F)c2[nH]c(C(=O)NC3CN(C(C)=O)C3)cc12 [Example I-1356] | – | 4.00 to 5.00
16 | CCc1nccn1-c1cc(C2=CCCN(C(=O)CCn3ccnn3)C2)c(F)c2[nH]c(C(=O)N3CCN(c4ncccc4OC)CC3)cc12 [Example I-692] | < 4.00 | –
17 | COc1ccccc1-c1cc(C2=CCCN(C(=O)CCn3ccnn3)C2)c(F)c2[nH]c(C(=O)N3CCN(c4cc(F)ccn4)CC3)cc12 [Example I-934] | > 7.00 | –
18 | CN(C)C(=O)c1nc2ccc(C3=CCCN(C(=O)CCn4ccnn4)C3)cc2o1 [Example I-226] | 4.00 to 5.00 | –
19 | COc1cc(F)cnc1N1CCN(C(=O)c2cc3c(-c4ccnc(N5CCOCC5)c4)cc(C4=CCCN(C(=O)CCn5ccnn5)C4)c(F)c3[nH]2)CC1 [Example I-680] | > 7.00 | –
20 | COc1ccccc1-c1cc(C2=CCCN(C(C)=O)C2)c(F)c2sc(C(=O)N3CCN(c4ncccc4OC)CC3)cc12 [Example I-1106] | 5.00 to 6.00 | –
21 | CN(C)C(=O)c1cc2ccc(C3=CCCN(C(=O)c4cccnc4-c4cc(F)cc(F)c4)C3)cc2[nH]1 [Example I-94] | 4.00 to 5.00 | –
22 | CN(C)C(=O)c1cc2cc(C3=CCCN(C(=O)CCc4c[nH]c5ccccc45)C3)ccc2o1 [Example I-300] | 4.00 to 5.00 | –
23 | CCc1cnccc1-c1cc(C2=CCCN(C(C)=O)C2)c(F)c2[nH]c(C(=O)N3CCN(c4ncc(F)cc4OC)CC3)cc12 [Example I-706] | 4.00 to 5.00 | –
24 | COc1ccccc1-c1cc(C2=CCCN(C(=O)CCn3ccnn3)C2)c(F)c2[nH]c(C(=O)N3CC(Oc4ccc(F)cc4)C3)cc12 [Example I-999] | > 7.00 | –
25 | COc1ccncc1-c1cc(C2=CCCN(C(=O)CCc3nccs3)C2)c(F)c2[nH]c(C(=O)N3CCN(c4ncccc4OC)CC3)cc12 [Example I-497] | 4.00 to 5.00 | –
26 | NC(=O)c1cc2cc(C3=CCCN(C(=O)CCn4ccnn4)C3)ccc2o1 [Example I-213] | 4.00 to 5.00 | –
27 | CN(C)C(=O)c1ccc2[nH]c(C3=CCCN(C(=O)CCn4ccnn4)C3)cc2c1 [Example I-1673] | – | 6.00 to 7.00

Row | Compound | pIC50 (30 minutes at room temperature) | pIC50 (30 minutes room temperature)
28 | COc1ccc(Cl)c(-c2cc(C3=CCCN(C(=O)CCn4ccnn4)C3)cc3[nH]c(C(=O)N(C)C)cc23)c1 [Example I-1062] | > 7.00 | –
29 | CN1CCN(c2ccc(-c3cc(C4=CCCN(C(=O)CCn5ccnn5)C4)cc4cc(C(=O)N(C)C)oc34)cn2)CC1 [Example I-1087] | > 7.00 | –
30 | COc1ccccc1-c1cc(C2=CCCN(C(=O)CCn3ccnn3)C2)c(F)c2[nH]c(C(=O)N3CCNC(=O)CC3)cc12 [Example I-983] | > 7.00 | –
31 | COc1ccncc1-c1cc(C2=CCCN(C(=O)CCn3ccnn3)C2)c(F)c2[nH]c(C(=O)N3CCN(c4ccc(C(F)(F)F)cc4OC)CC3)cc12 [Example I-463] | > 7.00 | –
32 | COc1ccccc1-c1cc(C2=CCCN(C(=O)CCn3ccnn3)C2)c(F)c2[nH]c(C(=O)N3CCN(c4ccn(C)n4)CC3)cc12 [Example I-933] | > 7.00 | –
33 | Cc1ccc(-c2cc(C3=CCCN(C(=O)CCn4ccnn4)C3)c(F)c3[nH]c(C(=O)N(C)C4CC4)cc23)c(C2CC2)n1 [Example I-1343] | – | > 7.00
34 | COc1cc(C)ncc1-c1cc(C2=CCCN(C(=O)CCn3ccnn3)C2)c(F)c2[nH]c(C(=O)N3CCN(c4ncc(F)cc4OC)CC3)cc12 [Example I-667] | < 4.00 | –
35 | Nc1nc(NC(=O)c2cc3cc(C4=CCCN(C(=O)CCn5ccnn5)C4)ccc3o2)cs1 [Example I-1512] | – | 5.00 to 6.00
36 | COc1ccccc1-c1cc(C2=CCCN(C(=O)CCn3ccnn3)C2)c(F)c2[nH]c(C(=O)N(CCO)c3ccc4ccccc4n3)cc12 [Example I-1619] | – | 5.00 to 6.00
37 | COc1ccccc1-c1cc(C(=O)N(C)C)cc2cc(C3=CCCN(C(=O)CCn4ccnn4)C3)[nH]c12 [Example I-1576] | – | > 7.00
38 | COc1cc(F)cnc1N1CCN(C(=O)c2cc3c(C4=CCN(C5CC5)CC4)cc(C4=CCCN(C(=O)CCn5ccnn5)C4)c(F)c3[nH]2)CC1 [Example I-1131] | > 7.00 | –
39 | COC(=O)CCC#Cc1cc(C2=CCCN(C(=O)C3Cc4ccccc4CN3C=O)C2)cc2cc(C(=O)N(C)C)oc12 (stereo not drawn) [Example I-184] | > 7.00 | –
40 | COc1cc(F)cnc1N1CCN(C(=O)c2cc3c(-c4ccnc(OC(F)F)c4)cc(C4=CCCN(C(=O)CCn5ccnn5)C4)c(F)c3[nH]2)CC1 [Example I-653] | > 7.00 | –
41 | CN(C)C(=O)c1cc2ccc(C3CCCN(C(=O)CCn4ccnn4)C3)cc2[nH]1 (stereo not drawn) [Example I-1188] | 6.00 to 7.00 | –
42 | COc1ccccc1-c1cc(C2=CCCN(C(=O)CCn3ccnn3)C2)c(F)c2[nH]c(C(=O)N3CCN(c4cncc5cccnc45)CC3)cc12 [Example I-954] | > 7.00 | –
43 | COc1ccccc1-c1cc(C2=CCCN(C(=O)CCn3ccnn3)C2)c(F)c2[nH]c(C(=O)N3CCN(c4ncccc4OC)CC3)cc12 [Example I-326] | > 7.00 | –
44 | COc1ccc(C(F)F)cc1-c1cc(C2=CCCN(C(=O)CCn3ccnn3)C2)cc2[nH]c(C(=O)N(C)C)cc12 [Example I-1654] | – | > 7.00
45 | CN(C)C(=O)c1cc2c(F)c(C3=CCCN(C(=O)C4Cc5ccccc5CN4C=O)C3)ccc2o1 (stereo not drawn) [Example I-374, 4-fluoro-5-(1-(2-formyl-1,2,3,4-tetrahydroisoquinoline-3-carbonyl)-1,2,5,6-tetrahydropyridin-3-yl)-N,N-dimethylbenzofuran-2-carboxamide] | > 7.00 | –
46 | COc1cc(F)cnc1N1CCN(C(=O)c2cc3c(-c4cnn(-c5ccccc5)c4)cc(C4=CCCN(C(=O)CCn5ccnn5)C4)c(F)c3[nH]2)CC1 [Example I-671] | 6.00 to 7.00 | –
47 | COc1ccc(Cn2cc(CC(=O)N3CCC=C(c4ccc5cc(C(=O)N(C)C)[nH]c5c4)C3)cn2)cc1 [Example I-136] | 4.00 to 5.00 | –
48 | COc1cccnc1N1CCN(C(=O)c2cc3c(-c4ccccc4OC(F)(F)F)cc(C4=CCCN(C(=O)CCn5ccnn5)C4)c(F)c3[nH]2)CC1 [Example I-558] | > 7.00 | –
49 | (R)-5-(1-(2-formyl-1,2,3,4-tetrahydroisoquinoline-3-carbonyl)-1,2,5,6-tetrahydropyridin-3-yl)-7-(2-methoxyphenyl)-N,N-dimethylbenzofuran-2-carboxamide [Example I-804] | > 7.00 | –
50 | CN(C)C(=O)c1cc2ccc(C3=CCCN(C(=O)c4c(F)cccc4C(=O)O)C3)cc2[nH]1 [Example I-61] | 4.00 to 5.00 | –
51 | CN(C)C(=O)c1cc2ccc(C3=CCCN(C(=O)C4CC4F)C3)cc2[nH]1 (stereo not drawn) [Example I-26] | 4.00 to 5.00 | –
52 | COc1ccccc1-c1cc(C2=CCCN(C(=O)CCn3ccnn3)C2)c(F)c2[nH]c(C(=O)N3CCN(c4cnc(O)c5cnccc45)CC3)cc12 [Example I-1429] | – | > 7.00
53 | O=C(CCn1ccnn1)N1CCC=C(c2ccc3oc(C(=O)N4CCC45CCCCC5)cc3c2)C1 [Example I-1605] | – | 5.00 to 6.00
54 | CC(=O)N1CCc2ccc(CC(=O)N3CCC=C(c4ccc5oc(C(=O)N(C)C)cc5c4)C3)cc2C1 [Example I-193] | 4.00 to 5.00 | –

pIC50: −log10 of the molar value.
